# Source: publication PMC4336329 (PLoS ONE, 2015)
# Among all 310,000 compounds or so, about 14,000 (4.5%) showed an effect of 50% or more. The effect is printed as a negative number. The list shows a part of the results.
# Biological target: human ether-à-go-go-related gene (hERG) potassium channel (human, UniProt Q12809)
# Test: primary screen, population patch clamp on CHO cells stably expressing hERG
# 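Note: peak tail current of the secondary pulse compared with the same well before compound.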
# human ether-à-go-go-related gene (hERG) potassium channel, sequence (Q12809 whole entry, looked up): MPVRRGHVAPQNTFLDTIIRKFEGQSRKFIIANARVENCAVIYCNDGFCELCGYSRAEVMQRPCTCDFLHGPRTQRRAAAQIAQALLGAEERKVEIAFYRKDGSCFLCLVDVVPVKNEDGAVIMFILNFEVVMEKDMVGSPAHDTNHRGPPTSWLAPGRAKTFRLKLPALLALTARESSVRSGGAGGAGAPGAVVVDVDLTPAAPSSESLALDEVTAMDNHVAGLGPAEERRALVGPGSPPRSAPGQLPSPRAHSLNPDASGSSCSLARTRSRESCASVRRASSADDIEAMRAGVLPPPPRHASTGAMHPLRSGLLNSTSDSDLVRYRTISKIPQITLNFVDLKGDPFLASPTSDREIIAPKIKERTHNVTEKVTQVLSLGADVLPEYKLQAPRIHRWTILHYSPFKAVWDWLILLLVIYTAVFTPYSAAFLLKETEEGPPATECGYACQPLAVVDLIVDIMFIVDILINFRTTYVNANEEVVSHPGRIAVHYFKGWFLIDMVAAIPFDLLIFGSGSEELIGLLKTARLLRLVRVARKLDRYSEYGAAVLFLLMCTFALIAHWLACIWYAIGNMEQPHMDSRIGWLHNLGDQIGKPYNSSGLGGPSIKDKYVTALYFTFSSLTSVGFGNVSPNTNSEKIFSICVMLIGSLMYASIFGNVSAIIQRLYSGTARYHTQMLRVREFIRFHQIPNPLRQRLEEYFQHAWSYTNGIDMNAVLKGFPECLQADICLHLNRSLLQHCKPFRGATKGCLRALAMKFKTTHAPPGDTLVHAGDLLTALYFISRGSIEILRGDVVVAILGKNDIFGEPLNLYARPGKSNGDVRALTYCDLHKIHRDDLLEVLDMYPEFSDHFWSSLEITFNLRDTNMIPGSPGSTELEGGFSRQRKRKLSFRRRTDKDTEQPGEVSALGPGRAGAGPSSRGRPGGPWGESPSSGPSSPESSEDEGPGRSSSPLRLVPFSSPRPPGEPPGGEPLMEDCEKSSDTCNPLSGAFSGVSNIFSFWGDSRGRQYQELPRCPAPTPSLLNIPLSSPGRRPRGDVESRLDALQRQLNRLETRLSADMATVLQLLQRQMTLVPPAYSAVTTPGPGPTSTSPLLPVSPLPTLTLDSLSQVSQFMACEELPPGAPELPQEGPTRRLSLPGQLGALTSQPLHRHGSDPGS
row,SMILES,"hERG current change (%, negative = inhibition) at 10uM"
1,Cc1cccc(C)c1OCC(=O)Nc1cccc(C(=O)O)c1,5.24%
2,COc1ccc(C(=O)Nc2cc3c(cc2OC)CCCC3)cc1Br,12.9%
3,CCN(CC)CCCn1c2c(c(SCC(=O)Nc3cccc4ccccc34)nc1=O)CCC2,-56.6%
4,COc1ccc(NS(=O)(=O)c2cccc(C(=O)N3CCCC3)c2)cc1,2.23%
5,O=C(CC1(C(F)(F)F)OCCO1)Nc1ccc2c(c1)OCO2,-2.24%
6,Cc1cc(Cl)ccc1NC(=O)CCC(=O)N/N=C/c1cc([N+](=O)[O-])ccc1O,0.318%
7,Cc1ccc(-n2c(N)c(C(=O)N3CCOCC3)sc2=S)c(C)c1,-24.5%
8,CC(C)CC(NC(=O)C1CCCCC1)C(=O)N1CCN(c2ccccn2)CC1 (centres unmarked),-19.7%
9,COc1ccc(-c2cc(=O)[nH]c(NCc3ccccc3)n2)cc1,-1.24%
10,Cc1ccc(NS(=O)(=O)c2cccc(C(=O)OCC(=O)NCc3ccco3)c2)cc1,-34.1%
11,C/C(=N\Nc1nccnc1Cl)c1c(F)c(F)c(F)c(F)c1F,-20.6%
12,CC(C)(C)C(=O)[C@@H]1[C@@H]2C(=O)N(C3CCCCC3)C(=O)[C@@H]2[C@H]2c3ccccc3C=CN12,-14%
13,Cc1ccc2c(cnn2C(=O)CCC(=O)NC2CCCCC2)c1,-3.77%
14,COc1ccc(N2CCN(C(=S)Nc3cc(C)cc(C)c3)CC2)cc1,-9.32%
15,c1ccc2c(NC3=NCCCCS3)cccc2c1,-18.5%
16,CCOc1cc(C=O)ccc1OCCSc1ccc(C)cc1,-18.9%
17,CCNC(=O)NC(=O)C(C)Sc1ncc(C(F)(F)F)cc1Cl (centres unmarked),6.93%
18,Cc1cc(NC(=O)c2ccc([N+](=O)[O-])cc2Cl)ccc1NC(=O)c1ccco1,3.44%
19,COC(=O)c1sc(C(F)(F)F)c(-c2ccccc2)c1S(=O)(=O)N1CCCC1,-14.1%

row,SMILES,"hERG current change (%, negative = inhibition) at 10uM"
1,O=C(CN1C(=O)c2ccccc2C1=O)NCC1CCCO1 (centres unmarked),-9.91%
2,CC(C)c1ccc(NC(=S)Nc2ccc3cn[nH]c3c2)cc1,30.6%
3,COc1ccc(OC)c(NS(=O)(=O)c2cccs2)c1,-15.5%
4,Cc1cc(NC(=O)CSc2nnc(COc3ccccc3)n2Cc2ccco2)no1,2.24%
5,CCCOc1ccc(C2=CSC3=NCCN23)cc1.Cl,-28.3%
6,CCN(CC(=O)Nc1c(F)cccc1F)C(=O)c1ccc2c(c1)S(=O)(=O)N=C1CCCCCN12,9.69%
7,O=S(=O)(NCc1ccc(Cl)cc1Cl)c1ccc(N2CCOCC2)nc1,-28.4%
8,Cc1ccc(C(=O)C2=C(O)C(=O)N(Cc3cccnc3)C2c2ccc(N(C)C)cc2)o1 (centres unmarked),16.5%
9,CCC(C)NS(=O)(=O)c1ccc(S(=O)(=O)N2CC=C(c3ccc(F)cc3)CC2)cc1 (centres unmarked),-12.4%
10,COc1ccc(C(=O)Nc2cc(OC)c(Cl)cc2Cl)cc1,18.1%
11,CC(C)OCCCN1C(=O)c2ccccc2C1C(=O)NC1CCCCC1 (centres unmarked),-7.62%
12,CC(=O)c1nn(-c2ccc(C(F)(F)F)cc2)c(=O)[nH]c1=O,27.7%
13,CN1CCN(C(=O)/C(=C/c2ccc(F)cc2)c2ccsc2)CC1.Cl,-70.1%
14,O=C(NNc1ncnc2c1cnn2-c1ccc(F)cc1)c1cccs1,6.55%
15,CCOC(=O)CSc1nc(C)c(CC)c(C)c1C(N)=O,20.9%
16,COCCC1CCCCN1C(=O)c1ccc2nc(Cc3ccccc3F)oc2c1 (centres unmarked),-4.88%
17,CC(C)C(NS(=O)(=O)c1ccc2c3c(cccc13)C(=O)N2)C(=O)O (centres unmarked),12%
18,CC(C)CC(=O)N1CCN(Cc2ccccc2Cl)CC1,19.8%
19,COc1ccc(-c2nc(CS(=O)CC(=O)NCc3ccc(C)cc3)c(C)o2)cc1OC (centres unmarked),-12.5%

row,SMILES,"hERG current change (%, negative = inhibition) at 10uM"
1,O=C(Nc1ccccc1)N(CCc1nc2ccccc2[nH]1)C1CCCC1,-24%
2,N/C(=N\OC(=O)CCC1CCCC1)c1ccccc1,3.63%
3,C=C(C)c1ccc(C(C)(C)NC(=O)N2CCN(C)CC2)cc1,-10.3%
4,COc1ccc(-c2nc(CN(CC3CCC(=O)N3)C(C)C)c(C)o2)c(C)c1C (centres unmarked),9.2%
5,Cc1ccc(N(Cc2cc3ccc(C)cc3[nH]c2=O)S(C)(=O)=O)c(C)c1,-8.56%
6,CCC1CCC/C1=N\NC(=O)c1ccccc1C (centres unmarked),11.3%
7,COc1ccc(C(=O)N2CCNC(=O)C2CC(=O)Nc2cc(Cl)ccc2OC)cc1 (centres unmarked),-8.14%
8,CCN(CC)c1ccc(NC(=O)CN2CCN(c3ccccc3F)CC2)cc1,-5.61%
9,CCOC(=O)CCc1c(C)nc(SCCCn2c(=O)[nH]c3ccccc32)c(C#N)c1C,4.73%
10,CCOC(=O)c1c(C)nc2c(c1-c1cc(OC)c(OC)c(OC)c1)C(=O)c1ccccc1-2,3.3%
11,CCOC(=O)C(CC)/C(C)=N/NC(=O)c1ccc([N+](=O)[O-])cc1 (centres unmarked),-16.1%
12,CN(C)CCn1c(COc2ccccc2)nc2ccccc21.Cl.O,-27.8%
13,COC(=O)c1ccc(NC(=O)CSCc2ccccc2)cc1,-13.8%
14,N#Cc1c(/N=C/c2cc(Br)cs2)sc2c1CCC2,9.83%
15,Cc1cc(F)ccc1S(=O)(=O)N1CCCOC1CNC(=O)C(=O)NC1CCCCC1 (centres unmarked),-18%
16,Cc1cc(SCC(=O)OCC(=O)N(C)C2CCS(=O)(=O)C2)c(C)cc1Br (centres unmarked),-73.1%
17,C#CCn1c(O)c(N=NC(=O)C(O)c2ccccc2)c2ccccc21 (centres unmarked),-13.7%
18,COc1ccc(N2C(=O)CN(Cc3ccc(OC)c(OC)c3)C2=S)cc1,2.97%
